Measurements reported in US4569927A, “GnRH Antagonists IV” (The Salk Institute For Biological Studies, priority 1984, dated 1986).
Part of at least one peptide drawing is inferred or uncertain, most often the ends. Numbered stars: 1 amine (or outer) side, 2 acyl side, 3 side chain; on linkers, the order of the positions; unused ones are H or OH. Square brackets hold non-standard residues; d marks the D form. Peptide text beside a SMILES is read from it. * marks the point of attachment. dTrp(6-NO2) = N[C@H](Cc1c[nH]c2cc([N+](=O)[O-])ccc12)C(=O)O; dTrp(5-OMe) = COc1ccc2[nH]cc(C[C@@H](N)C(=O)O)c2c1; X1 = Nc1ccc2c(C[C@@H](N[*:1])C(=O)[*:2])c[nH]c2c1; dTrp(5-Br) = N[C@H](Cc1c[nH]c2ccc(Br)cc12)C(=O)O; dTrp(5-Cl) = N[C@H](Cc1c[nH]c2ccc(Cl)cc12)C(=O)O; dTrp(5-Me) = Cc1ccc2[nH]cc(C[C@@H](N)C(=O)O)c2c1; dTrp(5-F) = N[C@H](Cc1c[nH]c2ccc(F)cc12)C(=O)O; dPhe(4-F) = N[C@H](Cc1ccc(F)cc1)C(=O)O; d2Nal = N[C@H](Cc1ccc2ccccc2c1)C(=O)O; For = O=C*

Test system: ovulation in female rats
Test: in vivo test of effectiveness to prevent ovulation in female rats
Parameters: species or system rat (Sprague-Dawley)
Conditions: injected about noon on day of proestrus, mature female Sprague-Dawley rats, rats ovulating/rats treated
[1] = dose 0.5 μg peptide in corn oil

CC(=O)N[C@H](Cc1ccc2ccccc2c1)C(=O)N[C@H](Cc1ccc(F)cc1)C(=O)N[C@H](Cc1c[nH]c2cc(N)ccc12)C(=O)N[C@@H](CO)C(=O)N[C@@H](Cc1ccc(O)cc1)C(=O)N[C@H](CCCNC(=N)N)C(=O)N[C@@H](CC(C)C)C(=O)N[C@@H](CCCNC(=N)N)C(=O)N1CCC[C@H]1C(=O)NCC(N)=O [Peptide 4] (Ac-[d2Nal][dPhe(4-F)][X1]SY[dR]LRPG-NH2)
No. Ovulating (dose 1 μg peptide in corn oil): 5/14

CC(=O)N[C@H](Cc1ccc2ccccc2c1)C(=O)N[C@H](Cc1ccc(F)cc1)C(=O)N[C@H](Cc1c[nH]c2ccc(F)cc12)C(=O)N[C@@H](CO)C(=O)N[C@@H](Cc1ccc(O)cc1)C(=O)N[C@H](CCCNC(=N)N)C(=O)N[C@@H](CC(C)C)C(=O)N[C@@H](CCCNC(=N)N)C(=O)N1CCC[C@H]1C(=O)NCC(N)=O [Peptide 7] (Ac-[d2Nal][dPhe(4-F)][dTrp(5-F)]SY[dR]LRPG-NH2)
No. Ovulating (dose 1 μg peptide in corn oil): 3/9

CC(=O)N[C@H](Cc1ccc2ccccc2c1)C(=O)N[C@H](Cc1ccc(F)cc1)C(=O)N[C@H](Cc1c[nH]c2ccc(C)cc12)C(=O)N[C@@H](CO)C(=O)N[C@@H](Cc1ccc(O)cc1)C(=O)N[C@H](CCCNC(=N)N)C(=O)N[C@@H](CC(C)C)C(=O)N[C@@H](CCCNC(=N)N)C(=O)N1CCC[C@H]1C(=O)NCC(N)=O [Peptide 9] (Ac-[d2Nal][dPhe(4-F)][dTrp(5-Me)]SY[dR]LRPG-NH2)
No. Ovulating (dose 1 μg peptide in corn oil): 10/16 | No. Ovulating (dose 2.5 μg peptide in corn oil): 0/10

CC(=O)N[C@H](Cc1ccc2ccccc2c1)C(=O)N[C@H](Cc1ccc(F)cc1)C(=O)N[C@H](Cc1c[nH]c2ccc(Cl)cc12)C(=O)N[C@@H](CO)C(=O)N[C@@H](Cc1ccc(O)cc1)C(=O)N[C@H](CCCNC(=N)N)C(=O)N[C@@H](CC(C)C)C(=O)N[C@@H](CCCNC(=N)N)C(=O)N1CCC[C@H]1C(=O)NCC(N)=O [Peptide 8] (Ac-[d2Nal][dPhe(4-F)][dTrp(5-Cl)]SY[dR]LRPG-NH2)
No. Ovulating [1]: 2/7 | No. Ovulating (dose 1 μg peptide in corn oil): 7/14

CC(=O)N[C@H](Cc1ccc2ccccc2c1)C(=O)N[C@H](Cc1ccc(F)cc1)C(=O)N[C@H](Cc1c[nH]c2ccc(Br)cc12)C(=O)N[C@@H](CO)C(=O)N[C@@H](Cc1ccc(O)cc1)C(=O)N[C@H](CCCNC(=N)N)C(=O)N[C@@H](CC(C)C)C(=O)N[C@@H](CCCNC(=N)N)C(=O)N1CCC[C@H]1C(=O)NCC(N)=O [Peptide 6] (Ac-[d2Nal][dPhe(4-F)][dTrp(5-Br)]SY[dR]LRPG-NH2)
No. Ovulating (dose 1 μg peptide in corn oil): 6/18 | No. Ovulating (dose 2 μg peptide in corn oil): 0/10

COc1ccc2[nH]cc(C[C@@H](NC(=O)[C@@H](Cc3ccc(F)cc3)NC(=O)[C@@H](Cc3ccc4ccccc4c3)NC(C)=O)C(=O)N[C@@H](CO)C(=O)N[C@@H](Cc3ccc(O)cc3)C(=O)N[C@H](CCCNC(=N)N)C(=O)N[C@@H](CC(C)C)C(=O)N[C@@H](CCCNC(=N)N)C(=O)N3CCC[C@H]3C(=O)NCC(N)=O)c2c1 [Peptide 5] (Ac-[d2Nal][dPhe(4-F)][dTrp(5-OMe)]SY[dR]LRPG-NH2)
No. Ovulating (dose 1 μg peptide in corn oil): 7/10

CC(=O)N[C@H](Cc1ccc2ccccc2c1)C(=O)N[C@H](Cc1ccc(F)cc1)C(=O)N[C@H](Cc1c[nH]c2cc([N+](=O)[O-])ccc12)C(=O)N[C@@H](CO)C(=O)N[C@@H](Cc1ccc(O)cc1)C(=O)N[C@H](CCCNC(=N)N)C(=O)N[C@@H](CC(C)C)C(=O)N[C@@H](CCCNC(=N)N)C(=O)N1CCC[C@H]1C(=O)NCC(N)=O [Peptide 1, [Ac-β-D-2NAL^1, (4F)D-Phe^2, (6NO2)D-Trp^3, D-Arg^6]-GnRH] (Ac-[d2Nal][dPhe(4-F)][dTrp(6-NO2)]SY[dR]LRPG-NH2)
No. Ovulating [1]: 4/14 | No. Ovulating (dose 1 μg peptide in corn oil): 0/5

CC(=O)N[C@H](Cc1ccc2ccccc2c1)C(=O)N[C@H](Cc1ccc(F)cc1)C(=O)N[C@H](Cc1cn(C=O)c2ccccc12)C(=O)N[C@@H](CO)C(=O)N[C@@H](Cc1ccc(O)cc1)C(=O)N[C@H](CCCNC(=N)N)C(=O)N[C@@H](CC(C)C)C(=O)N[C@@H](CCCNC(=N)N)C(=O)N1CCC[C@H]1C(=O)NCC(N)=O [Peptide 10] (Ac-[d2Nal][dPhe(4-F)][dW](For)SY[dR]LRPG-NH2)
No. Ovulating [1]: 9/17 | No. Ovulating (dose 1 μg peptide in corn oil): 0/10

CC(=O)N[C@H](Cc1ccc2ccccc2c1)C(=O)N[C@H](Cc1ccc(F)cc1)C(=O)N[C@H](Cc1c[nH]c2cc([N+](=O)[O-])ccc12)C(=O)N[C@@H](CO)C(=O)N[C@@H](Cc1ccc(O)cc1)C(=O)N[C@H](CCCNC(=N)N)C(=O)N[C@@H](CC(C)C)C(=O)N[C@@H](CCCNC(=N)N)C(=O)N1CCC[C@H]1C(=O)N[C@H](C)C(N)=O [Peptide 2] (Ac-[d2Nal][dPhe(4-F)][dTrp(6-NO2)]SY[dR]LRP[dA]-NH2)
No. Ovulating (dose 0.25 μg peptide in corn oil): 7/7 | No. Ovulating (dose 1 μg peptide in corn oil): 1/10
